Measurements as given in patent EP4631959A2, “NOVEL MINIGASTRIN-DERIVED CHOLECYSTOKININ 2 RECEPTOR BINDING MOLECULES FOR IMAGING AND TARGETED RADIOTHERAPY” (priority 2022, dated 2024).
Where two headings read alike, the source gives them in different places. For at least one compound, name, drawing or mass did not settle the structure. Starred links: 1 amine or outer side, 2 acyl side, 3 side chain; linkers in the order of their positions; H or OH if unused. Non-standard residues stand in square brackets, D forms with d. Residues, ends and D or L forms follow the SMILES beside them. *: point of attachment. DOTA = O=C(O)CN1CCN(CC(=O)O)CCN(CC(=O)*)CCN(CC(=O)O)CC1; d(γGlu) = O=C(O)[C@@H](CCC(=O)[*:2])N[*:1]; αMeW = C[C@](N)(Cc1c[nH]c2ccccc12)C(=O)O; Phe(4-NH2) = Nc1ccc(C[C@H](N)C(=O)O)cc1; 1Nal = N[C@@H](Cc1cccc2ccccc12)C(=O)O; 2Nal = N[C@@H](Cc1ccc2ccccc2c1)C(=O)O; NMeL = CN[C@@H](CC(C)C)C(=O)O; NMeNle = CCCC[C@H](NC)C(=O)O; NMeM = CN[C@@H](CCSC)C(=O)O; Nle = CCCC[C@H](N)C(=O)O; AEEA = NCCOCCOCC(=O)O; Sar = CNCC(=O)O

Target: T1, CCK-2R (Rattus norvegicus, UniProt P30553)
T1 construct: The CCK-2R expressing rat pancreatic tumor cells AR4-2J; host or cells: AR4-2J rat pancreatic tumor cells
T1 sequence (P30553 1-452): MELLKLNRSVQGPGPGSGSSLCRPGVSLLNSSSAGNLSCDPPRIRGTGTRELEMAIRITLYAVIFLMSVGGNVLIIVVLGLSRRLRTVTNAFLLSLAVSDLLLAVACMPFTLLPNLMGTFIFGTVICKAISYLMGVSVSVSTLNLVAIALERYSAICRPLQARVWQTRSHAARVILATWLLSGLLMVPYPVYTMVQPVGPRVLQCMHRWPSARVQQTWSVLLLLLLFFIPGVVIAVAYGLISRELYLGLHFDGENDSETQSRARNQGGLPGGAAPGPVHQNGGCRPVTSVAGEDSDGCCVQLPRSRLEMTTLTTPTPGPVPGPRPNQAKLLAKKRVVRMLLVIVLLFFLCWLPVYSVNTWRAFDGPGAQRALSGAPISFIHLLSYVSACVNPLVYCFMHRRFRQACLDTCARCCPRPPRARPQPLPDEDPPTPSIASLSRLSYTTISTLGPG
Experiment: Determination of IC50: CCK-2R affinity on AR4-2J cells, competition with [^177Lu]Lu-DOTA-PP-F11N
Type: binding
Experimental: AR4-2J cells were harvested 24 ± 2 h before the experiment and seeded in 24-well plates (2.0 × 10^5 cells in 1 mL/well). After removal of the nutrient medium (RPMI 1640, 5 mM L-Gln, 5 mL non-essential amino acids (100×), 10% FCS), the cells were washed once with 500 µL PBS. Thereafter, 200 µL nutrient medium (5% BSA, v/v) were added. Next, 25 µL per well of solutions containing either nutrient medium (5% BSA, v/v) as control or the respective compound in increasing concentration (10^-10 - 10^-4 M), were added with subsequent addition of 25 µL [^177Lu]Lu-DOTA-PP-F11N (0.3 pmol/well).
All experiments were performed in triplicate for each concentration. After 3 h incubation at 37 °C, the experiment was terminated by removal of the medium and consecutive rinsing with 300 µL PBS. The media of both steps were combined in one fraction and represent the amount of free radiolabeled reference. Afterwards, the cells were lysed with 300 µL of 1 M NaOH for at least 15 min and united with the 300 µL NaOH of the following washing step. Quantification of bound and free radiolabeled reference was accomplished in a γ-counter. IC50 determination for each conjugate was repeated twice.

[1] = references ^natLu-labeled, other peptides without chelator, read-out: IC50 [nM] (n = 3)

SMILES | IC50 (^natLu-labeled, read-out: IC50 [nM] (n = 3), ^natLu-labeled) | IC50 [1] [nM]
CCCC[C@@H](C(=O)N[C@@H](CC(=O)O)C(=O)N[C@@H](Cc1cccc2ccccc12)C(N)=O)N(C)C(=O)[C@H](Cc1c[nH]c2ccccc12)NC(=O)COCCOCCNC(=O)CC[C@@H](NC(=O)CN1CCN(CC(=O)O)CCN(CC(=O)O)CCN(CC(=O)O)CC1)C(=O)O [DOTA-CCK-77, DOTA-γ-glu-PEG-Trp-(N-Me)Nle-Asp-1-Nal-NH2] ({DOTA-d(γGlu)-AEEA}-W[NMeNle]D[1Nal]-NH2) | 5 ± 0.8 | 
CCCC[C@@H](C(=O)N[C@@H](CCC(=O)O)C(=O)N[C@@H](Cc1cccc2ccccc12)C(N)=O)N(C)C(=O)[C@@H](N)Cc1c[nH]c2ccccc12 [H-Trp-(N-Me)Nle-Glu-1-Nal-NH2] (H-W[NMeNle]E[1Nal]-NH2) |  | 241 ± 50
CCCC[C@@H](C(=O)N[C@@H](CC(=O)O)C(=O)N[C@@H](Cc1cccc2ccccc12)C(N)=O)N(C)C(=O)[C@@H](N)Cc1c[nH]c2ccccc12 [H-Trp-(N-Me)Nle-Asp-1-Nal-NH2] (H-W[NMeNle]D[1Nal]-NH2) |  | 6.4 ± 1
CCCC[C@@H](C(=O)N[C@@H](CC(=O)O)C(=O)N[C@@H](Cc1ccc(N)cc1)C(N)=O)N(C)C(=O)[C@@H](N)Cc1c[nH]c2ccccc12 [H-Trp-(N-Me)Nle-Asp-p-amino-Phe-NH2] (H-W[NMeNle]D[Phe(4-NH2)]-NH2) |  | 3.55 ± 0.75
CN(CC(=O)N[C@@H](CC(=O)O)C(=O)N[C@@H](Cc1cccc2ccccc12)C(N)=O)C(=O)[C@@H](N)Cc1c[nH]c2ccccc12 [H-Trp-(N-Me)Gly-Asp-1-Nal-NH2] (H-W[Sar]D[1Nal]-NH2) |  | 1870 ± 382
CC(C)C[C@@H](C(=O)N[C@@H](CC(=O)O)C(=O)N[C@@H](Cc1cccc2ccccc12)C(N)=O)N(C)C(=O)[C@@H](N)Cc1c[nH]c2ccccc12 [H-Trp-(N-Me)Leu-Asp-1-Nal-NH2] (H-W[NMeL]D[1Nal]-NH2) |  | 9.27 ± 1.52
CCCC[C@H](NC(=O)[C@H](Cc1c[nH]c2ccccc12)NC(=O)CNC(=O)[C@H](Cc1ccc(O)cc1)NC(=O)[C@H](C)NC(=O)CC[C@@H](N)C(=O)O)C(=O)N[C@@H](CC(=O)O)C(=O)N[C@@H](Cc1c[nH]c2ccccc12)C(N)=O [CCK-39, H-γ-glu-Ala-Tyr-Gly-Trp-Nle-Asp-Trp-NH2] ({d(γGlu)}-AYGW[Nle]DW-NH2) |  | 45.8 ± 12.3
CCCC[C@@H](C(=O)N[C@@H](CC(=O)O)C(=O)N[C@@H](Cc1cccc2ccccc12)C(N)=O)N(C)C(=O)[C@H](Cc1c[nH]c2ccccc12)NC(=O)CNC(=O)[C@H](Cc1ccc(O)cc1)NC(=O)[C@H](C)NC(=O)CC[C@@H](N)C(=O)O [CCK-49, H-γ-glu-Ala-Tyr-Gly-Trp-(N-Me)Nle-Asp-1-Nal-NH2] ({d(γGlu)}-AYGW[NMeNle]D[1Nal]-NH2) |  | 5.6 ± 0.4
CSCC[C@@H](C(=O)N[C@@H](CC(=O)O)C(=O)N[C@@H](Cc1cccc2ccccc12)C(N)=O)N(C)C(=O)[C@@H](N)Cc1c[nH]c2ccccc12 [H-Trp-(N-Me)Met-Asp-1-Nal-NH2] (H-W[NMeM]D[1Nal]-NH2) |  | 6.08 ± 0.6
CCCC[C@H](NC(=O)[C@](C)(Cc1c[nH]c2ccccc12)NC(=O)CNC(=O)[C@H](Cc1ccc(O)cc1)NC(=O)[C@H](C)NC(=O)CC[C@@H](N)C(=O)O)C(=O)N[C@@H](CC(=O)O)C(=O)N[C@@H](Cc1ccccc1)C(N)=O [CCK-37, H-γ-glu-Ala-Tyr-Gly-(α-Me)Trp-Nle-Asp-Phe-NH2] ({d(γGlu)}-AYG[αMeW][Nle]DF-NH2) |  | 68.8 ± 10.3
CCCC[C@H](NC(=O)[C@H](Cc1c[nH]c2ccccc12)NC(=O)CNC(=O)[C@H](Cc1ccc(O)cc1)NC(=O)[C@H](C)NC(=O)CC[C@@H](N)C(=O)O)C(=O)N[C@@H](CC(=O)O)C(=O)N[C@@H](Cc1ccc(N)cc1)C(N)=O [CCK-34, H-γ-glu-Ala-Tyr-Gly-Trp-Nle-Asp-(p-amino-Phe)-NH2] ({d(γGlu)}-AYGW[Nle]D[Phe(4-NH2)]-NH2) |  | 16.9 ± 2.3
CCCC[C@@H](C(=O)N[C@@H](CC(=O)O)C(=O)N[C@@H](Cc1cccc2ccccc12)C(N)=O)N(C)C(=O)[C@@H](N)Cc1ccc2ccccc2c1 [H-2-Nal-(N-Me)Nle-Asp-1-Nal-NH2] (H-[2Nal][NMeNle]D[1Nal]-NH2) |  | 79 ± 16
